The source of these data is the supplement of paper PMC3334620.

Whole data set: some 33,000 sequences, median “E-score (-0.5 to 0.5)” near -0.012, cut for the highest 2% near 0.29. The list shows a part of the results.

For this assay, the target named is T1, Ybr033w (UniProt P38073).
T1 sequence: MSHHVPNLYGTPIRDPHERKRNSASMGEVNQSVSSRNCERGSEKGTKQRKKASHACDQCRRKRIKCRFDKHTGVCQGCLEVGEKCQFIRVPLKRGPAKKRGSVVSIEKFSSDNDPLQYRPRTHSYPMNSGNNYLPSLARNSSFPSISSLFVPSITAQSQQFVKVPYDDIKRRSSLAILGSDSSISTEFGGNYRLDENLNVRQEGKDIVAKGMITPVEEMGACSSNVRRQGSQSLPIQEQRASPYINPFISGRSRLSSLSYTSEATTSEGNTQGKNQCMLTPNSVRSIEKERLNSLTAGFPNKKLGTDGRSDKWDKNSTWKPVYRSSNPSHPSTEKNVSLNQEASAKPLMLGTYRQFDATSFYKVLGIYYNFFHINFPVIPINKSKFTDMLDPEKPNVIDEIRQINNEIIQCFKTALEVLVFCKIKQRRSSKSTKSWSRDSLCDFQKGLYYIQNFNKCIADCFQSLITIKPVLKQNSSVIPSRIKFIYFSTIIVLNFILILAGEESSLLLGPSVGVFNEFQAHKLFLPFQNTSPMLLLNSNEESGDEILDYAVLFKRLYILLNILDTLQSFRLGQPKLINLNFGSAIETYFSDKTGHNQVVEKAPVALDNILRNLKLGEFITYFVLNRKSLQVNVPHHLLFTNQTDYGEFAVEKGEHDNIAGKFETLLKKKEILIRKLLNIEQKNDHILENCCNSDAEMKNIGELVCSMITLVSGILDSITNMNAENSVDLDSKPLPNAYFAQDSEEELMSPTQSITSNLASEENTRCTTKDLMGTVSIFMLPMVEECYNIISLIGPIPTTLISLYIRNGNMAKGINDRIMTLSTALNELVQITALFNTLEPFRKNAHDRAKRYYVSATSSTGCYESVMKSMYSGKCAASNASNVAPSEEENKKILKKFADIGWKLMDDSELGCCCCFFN
Kind of assay: PBM E-score (8-mer binding enrichment) (E-score (-0.5 to 0.5)); higher = stronger / more preferred TF binding; most listed sequences are background and not binding sites. Particulars: protein concentration: 200 nM; construct: GST-full length. The procedure, abridged: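 Bound GST-tagged yeast transcription factors, applied at about 100-200 nM to double-stranded universal all-10-mer Agilent arrays, were detected with fluorescent anti-GST. Scans were normalised with masliner. A modified Wilcoxon-Mann-Whitney statistic, the E-score, was assigned to each ungapped eight-base word pooled with its reverse complement by the Universal PBM Analysis Suite.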
In the case of ACCTTTGA, the “PBM E-score” value is -0.004.

Take ACGTCATG: the “PBM E-score” value is -0.0366.

On to ATTACGCG, for which the “PBM E-score” value came out at 0.0111.

For ACCAGCGA, the “PBM E-score” value is -0.139.

Turning to CGGGTAAC, the “PBM E-score” value is -0.176.

As to GCAATCGA, the “PBM E-score” value was 0.0856.

Regarding ATCCTCAA, the “PBM E-score” value was determined as 0.158.

Take CAGCCGCA: the “PBM E-score” value was -0.102.

Take GAATTCAC: the “PBM E-score” value is 0.0365.

GTATCCAA: the “PBM E-score” value was found to be 0.117.

Regarding TCCAATCA, the “PBM E-score” value came to 0.0621.

Take CTCGTTGA: the “PBM E-score” value was -0.056.

For AAATTAGA, the “PBM E-score” value is 0.225.

On to CCATGTGA, for which the “PBM E-score” value is -0.0886.

Turning to CACCGGAA, the “PBM E-score” value was determined as 0.178.

GAAAGTCC: the “PBM E-score” value is -0.074.

For the sequence ATTGACAG, the “PBM E-score” value is -0.0692.

On to CTTCGGGC, for which the “PBM E-score” value is -0.246.

Turning to GGTACTAC, the “PBM E-score” value is 0.0644.

In the case of GCGAAGCA, the “PBM E-score” value is -0.117.

As for AGTGGCAT, the “PBM E-score” value is -0.036.

Consider CCACTAAG, for which the “PBM E-score” value is -0.0298.

On to CGCAGTTC, for which the “PBM E-score” value was -0.0876.

In the case of AGTAGCCC, the “PBM E-score” value was -0.055.

For the sequence GGAGGACC, the “PBM E-score” value is -0.327.

In the case of TATTGGGA, the “PBM E-score” value is 0.165.

Regarding AGATTTTA, the “PBM E-score” value was 0.109.

In the case of AGACTCAG, the “PBM E-score” value stood at 0.00993.

On to AGGACTGC, for which the “PBM E-score” value is -0.353.

Take CCCGATTA: the “PBM E-score” value is 0.0442.

On to CACCGATG, for which the “PBM E-score” value is -0.241.

With CTGCACAG, the “PBM E-score” value was -0.0409.

Consider CGGACTAA, for which the “PBM E-score” value turned out to be 0.121.

Turning to AGTTTTGC, the “PBM E-score” value was 0.247.

For the sequence AGGGATGG, the “PBM E-score” value is -0.072.

As to TAGCTAAA, the “PBM E-score” value was determined as 0.0815.

In the case of GGGAAGAC, the “PBM E-score” value was -0.19.

As for ACGACGCA, the “PBM E-score” value stood at 0.0506.

Regarding AATCCCCA, the “PBM E-score” value stood at 0.0287.

Take CACACCAG: the “PBM E-score” value is -0.057.

Take GTGGGCGA: the “PBM E-score” value stood at 0.0877.

With GTATTCGA, the “PBM E-score” value was -0.2.

Turning to ACGGATCT, the “PBM E-score” value was -0.0351.

CCGGAGAC: the “PBM E-score” value worked out at 0.0322.

As to ACAGACCA, the “PBM E-score” value amounted to 0.0694.

As for ATAGAACC, the “PBM E-score” value came out at 0.069.

With CAGAGGAC, the “PBM E-score” value is -0.0681.

As to ACTAGTAT, the “PBM E-score” value came to 0.24.

As to GCGTTGTA, the “PBM E-score” value is -0.0845.

For CCATGAAA, the “PBM E-score” value was 0.143.

CTAGCCAC: the “PBM E-score” value is -0.227.

As to TAAAGAAA, the “PBM E-score” value came out at 0.273.

For AGCTACGC, the “PBM E-score” value is -0.139.

For the sequence ACGAACGC, the “PBM E-score” value was -0.0736.

With ACGTTAGG, the “PBM E-score” value was 0.0113.

Turning to ACTGAAAA, the “PBM E-score” value was found to be 0.0442.

On to ATCACCAG, for which the “PBM E-score” value is -0.00414.

Consider GGTAGTCA, for which the “PBM E-score” value was -0.15.

For CGCGGATA, the “PBM E-score” value was determined as 0.24.

Take CTTAGCTA: the “PBM E-score” value was -0.0586.

In the case of ACGCCTCG, the “PBM E-score” value was -0.18.

On to CTTCTCTC, for which the “PBM E-score” value was found to be 0.0872.

As to ACAAGGGT, the “PBM E-score” value is -0.0518.

Take AGTAGCAC: the “PBM E-score” value is -0.0755.

Consider TCATGGAA, for which the “PBM E-score” value worked out at 0.154.

For the sequence GGAACTCA, the “PBM E-score” value is 0.0469.

Take ACATGGGT: the “PBM E-score” value was -0.0816.

On to TCATAGGA, for which the “PBM E-score” value worked out at 0.0261.

In the case of AAGGATAG, the “PBM E-score” value stood at 0.0976.

Take CTGACCGC: the “PBM E-score” value is -0.181.

As to CTGGCTTC, the “PBM E-score” value is -0.174.

In the case of ACGAAAAC, the “PBM E-score” value amounted to 0.166.

For the sequence CTATCGTC, the “PBM E-score” value was -0.0866.

On to CAAAACTG, for which the “PBM E-score” value came out at 0.146.

Take ATCCCAAC: the “PBM E-score” value was found to be 0.079.

AAGCGGCT: the “PBM E-score” value is -0.109.

Take AAAGTCGT: the “PBM E-score” value is 0.0565.

On to ACATGCCG, for which the “PBM E-score” value is -0.09.

For the sequence TATGGGGA, the “PBM E-score” value amounted to 0.0807.

Consider AAGGACGT, for which the “PBM E-score” value was -0.0394.

In the case of ATCATAGA, the “PBM E-score” value came out at 0.209.

With ATCGGTAC, the “PBM E-score” value was -0.0348.

For TAGCGCTA, the “PBM E-score” value is -0.136.

As to ATTAAACG, the “PBM E-score” value was determined as 0.27.

Consider CGACTGCC, for which the “PBM E-score” value is -0.0953.

Turning to GACCTTCA, the “PBM E-score” value was -0.0804.

Regarding ACAGCTCG, the “PBM E-score” value was -0.0436.

Turning to ACAGGCGA, the “PBM E-score” value was -0.149.

CTAGTAAA: the “PBM E-score” value came to 0.242.

Take AAGACTAA: the “PBM E-score” value was found to be 0.0332.

As to GTTTAAAA, the “PBM E-score” value was 0.122.

Consider AATGTGAG, for which the “PBM E-score” value is 0.0512.

For TGATGGAA, the “PBM E-score” value came out at 0.124.

Turning to ATGTCACA, the “PBM E-score” value is 0.116.
